# Test results published in PubChem BioAssay AID463173 (ICCB-Longwood Screening Facility, Harvard Medical School, 2010).
# Screen size: about 52,000 compounds; about 1,700 (3.3%) were called active. No stated cut-off is given here; in the data, active means survival mostly below about 52% (no sharp cut-off); inactive means mostly above about 56%. The list shows a part of the results.
# Tested on: Wild type
# Assay: growth inhibition of S. aureus wild type versus tarO mutant, primary screen, teichoic acid synthesis inhibitors, RN4220, OD600 (AID 463173)
# Conditions: S. aureus RN4220 wild type/DeltatarO growth, OD600, 18 h, stronger effect = lower value, screened at 18.75 µg/mL (by protocol)
row,SMILES,survival
1,CCOc1ccc(NC(=O)c2cc(C)nc3c2c(C)nn3-c2ccc(C)cc2)cc1,inactive: 130%
2,Cc1cccc(C(=O)N2CCc3cc(CNC(=O)CSc4ccccc4)ccc32)c1,inactive: 73%
3,CCOc1ccc(C(=O)NCCSc2c(C)[nH]c3ccccc23)cc1OCC,inactive: 86%
4,CCOc1ccc(C(=O)NCC(c2cccs2)S(=O)(=O)c2ccccc2)cc1 (stereo not given),inactive: 113%
5,CCc1cc2c(=O)[nH]cnc2s1,inactive: 106%
6,Cc1ccccc1CNC(=O)CSc1nnc(C)c2c(C)n(-c3ccccc3)nc12,inactive: 127%
7,COc1ccccc1CNC(=O)c1cc2c(s1)-c1ccc(Cl)cc1SC2,inactive: 88%
8,O=C1c2ccccc2-c2n[nH]c(=S)nc21,inactive: 106%
9,CCCCOc1ccc(C2C(C(=O)Nc3ccccc3OC)=C(C)Nc3nnnn32)cc1OC (stereo not given),inactive: 108%
10,CC(=O)N1CCCc2cc(S(=O)(=O)N3CCC(C(=O)Nc4ccc(C)cc4Cl)CC3)ccc21,inactive: 54%
11,Cc1ccc(S(=O)(=O)n2nc(C)c(S(=O)(=O)N3CCCCCC3)c2C)cc1C,inactive: 59%
12,Cc1ccn2c(Nc3ccc4c(c3)OCCO4)c(-c3ccccc3O)nc2c1,inactive: 82%
13,O=C(COc1ccc(Cl)cc1)Nc1nnc(S(=O)(=O)N2CCCCCC2)s1,inactive: 75%
14,CCOc1cccc(CC(=O)N2CCc3c([nH]c4ccc(OC)cc34)C2c2ccc(F)cc2)c1OCC (stereo not given),inactive: 89%
15,CCOC(=O)c1c(NC(=O)c2cc(-c3ccc(OC)c(OC)c3)on2)sc(C)c1C,inactive: 86%
16,CCN(CC)CCCNC(=O)CCC(=O)NNc1nc2ccccc2c2nc(C)nn12,inactive: 81%
17,COc1ccccc1N1CCN(C(CNC(=O)C(=O)NCc2cccnc2)c2cccnc2)CC1 (stereo not given),inactive: 82%
18,Cc1cc(NC(=O)Nc2nnc(N3CCCCCC3)s2)ccc1Br,inactive: 88%
19,Cc1ccc(NC(=O)c2oc3c(c2C)-c2[nH]ncc2CC3)c(Cl)c1,inactive: 87%
20,Cc1ccc(CNC(=O)c2ccc(Nc3nc4ccccc4n4nnnc34)cc2)cc1,inactive: 138%
21,Cc1ccc(-c2nn(-c3ccccc3)c3c2cnc2ccccc23)cc1C,inactive: 68%
22,COc1ccc(OC)c(-c2noc(N3CCN(c4ccc(Cl)cc4)CC3)n2)c1,inactive: 72%
23,Cn1cnc(S(=O)(=O)N2CCCC(C(=O)NCc3ccc(F)cc3)C2)c1 (stereo not given),inactive: 47%

row,SMILES,survival
1,CC(C)c1ccc(NS(=O)(=O)c2cc(Br)cc3c2N(C(=O)C2CC2)CC3)cc1,inactive: 69%
2,CCn1c(-c2ccccc2)cnc1SCC(=O)c1sc2c(c1C#N)CCCC2,inactive: 110%
3,CCOc1ccc(NC(=O)C(=O)NCCc2csc(-c3ccc(C(F)(F)F)cc3)n2)cc1,inactive: 75%
4,COc1ccc(CCNC(=O)c2ccc3c(c2)N(Cc2ccccc2)CCS3)cc1OC,inactive: 86%
5,Cc1ccc(C(=O)N2CCn3c4c(c5cc(C)ccc53)CCCC42)cc1 (stereo not given),active: -10%
6,Cc1cc(C)cc(NS(=O)(=O)c2ccc3[nH]cc(C(=O)NCCc4ccccc4)c(=O)c3c2)c1,inactive: 75%
7,COc1ccc(NC(=O)CN2CCN(Cc3ccccc3Cl)S2(=O)=O)cc1Cl,inactive: 71%
8,Cc1nn2c(=O)cc(COC(=O)c3ccccc3NC(=O)c3cccs3)nc2s1,inactive: 64%
9,CC(C)NC(=O)c1ccc2c(c1)N(Cc1cccc(Cl)c1)C(=O)c1ccccc1S2=O (stereo not given),inactive: 47%
10,CCc1ccccc1NS(=O)(=O)c1ccc2c(c1)CCCN2C(=O)C1CCC1,inactive: 120%
11,COC(=O)c1sc2c(c1C)c(=O)n(-c1ccccc1)c(=O)n2CC(=O)Nc1cccc(C)c1,inactive: 60%
12,CCCN1C(=O)C(O)(CC(=O)c2ccc(C(C)C)cc2)c2ccccc21 (stereo not given),inactive: 129%
13,CCN(C(=O)Cn1c(=O)oc2cc(S(=O)(=O)N3CCCCC3)ccc21)c1ccccc1,inactive: 79%
14,CCc1cccc(NC(=O)CCc2c(C)nc3c(-c4ccccc4)c(C)nn3c2C)c1,inactive: 87%
15,CN1CCN(Cc2c(O)ccc3cc(-c4ccc(Cl)cc4)c(=O)oc23)CC1,inactive: 143%
16,COc1cc(OC)c(NC(=O)N2CCC(CN3CCOCC3)CC2)cc1Cl,inactive: 89%
17,Cc1cc(C)cc(N2CCn3c2nc2c3c(=O)n(C/C=C/c3ccccc3)c(=O)n2C)c1,inactive: 98%
18,CCOc1cc(CNC(=O)C2CCN(c3nc4ccccc4[nH]3)CC2)cc(OCC)c1OCC,active: -3%
19,COc1cccc(CC(=O)Nc2ccc(-c3nc4ccccc4s3)cc2Cl)c1,inactive: 73%
20,COc1cccc(CNC(=O)c2c(C)oc3ncnc(N4CCOCC4)c23)c1,inactive: 76%
21,COc1ccc(N2CCN(C(=O)C3Cc4ccccc4N3C(C)=O)CC2)cc1 (stereo not given),inactive: 85%
22,Cc1c(C)c2cc3c(c(C)c2oc1=O)OCN(CCc1ccccc1)C3,inactive: 93%
23,Cc1ccc(C)c(NC(=O)CCOc2ccccc2)c1,inactive: 94%

row,SMILES,survival
1,COc1cccc(Nc2cc(C)nc3ccccc23)c1,inactive: 125%
2,Cc1c(Cl)cccc1NC(=O)CSc1ccc(-c2ccccn2)nn1,inactive: 113%
3,Nc1cccc(NC(=O)CCC(=O)NCc2ccco2)c1,inactive: 99%
4,Cc1ccc2nc(-c3ccc(F)cc3)c(NC(C)(C)CC(C)(C)C)n2c1,active: 14%
5,Cc1ccc2cccc(NC(=O)c3cccc4c(Br)cccc34)c2n1,inactive: 134%
6,COc1cccc(CNS(=O)(=O)c2ccc3c(c2)CC(C)N3C(=O)C2CCC2)c1 (stereo not given),inactive: 85%
7,O=C(Cn1c(=O)n(-c2ccc(Cl)cc2)c(=O)c2c3c(sc21)CCCCC3)Nc1cccc(Cl)c1,inactive: 96%
8,O=C(NCc1cccc(Cl)c1)c1cc2c(s1)-c1ccccc1SC2,inactive: 62%
9,CN(C)S(=O)(=O)c1ccc(/C(O)=C2\C(=O)C(=O)N(Cc3cccnc3)C2c2cccnc2)cc1 (stereo not given),inactive: 105%
10,COc1ccc(C)cc1NC(=O)C(=O)NCC(c1cccnc1)N1CCN(c2ccccc2F)CC1 (stereo not given),inactive: 79%
11,CCOC(=O)N1CCN(C(=O)Cc2cccc3ccccc23)CC1,inactive: 110%
12,Cc1cc(C)c2nc(N3CCCC(C(=O)NCc4ccccc4F)C3)sc2c1 (stereo not given),inactive: 89%
13,Cc1ccc(C(=O)NC2CC(C)(C)NC(C)(C)C2)cc1,inactive: 114%
14,COc1ccc(N2CCN(C(=O)c3ccc4c(c3)N(Cc3cccc(Cl)c3)C(=O)c3ccccc3S4(=O)=O)CC2)cc1,inactive: 82%
15,Cc1ccccc1C(=O)Nc1cc2c(cc1N1CCCCC1)n(C)c(=O)n2C,inactive: 62%
16,CCn1c(=O)n(-c2ccc3c(c2)OCO3)c2nc(-c3cccc(OC)c3OC)nc(C(N)=O)c21,inactive: 73%
17,O=C1N/C(=N\S(=O)(=O)Cc2ccccc2)S/C1=C\c1ccco1,inactive: 106%
18,CCCn1cc(S(=O)(=O)c2ccc(C)c(C)c2)c(=O)c2cc(F)c(N3CCC(C)CC3)cc21,inactive: 73%
19,Cc1ccc(C(=O)CSc2nnnn2C2CCCC2)cc1C,inactive: 108%
20,S=C(NCCN1CCCCC1)Nc1ccccc1,inactive: 108%
21,CCOc1ccccc1N(C)C(=O)c1cc2c(s1)-c1ccccc1OC2,active: 13%
22,CC(C)OCCCNC(=O)Cc1ccc(NC(=O)N2CCCCc3ccccc32)cc1,inactive: 77%
23,CCc1ccccc1NC(=O)Cn1c(=O)n(-c2cccc(C)c2)c(=O)c2c1c1cc(OC)ccc1n2C,inactive: 59%

row,SMILES,survival
1,CCOC(=O)CC(NC(=O)c1cc2c(=O)n3cccc(C)c3nc2s1)c1ccc(OCC)c(OC)c1 (stereo not given),inactive: 138%
2,COc1ccccc1NC(=O)CC1S/C(=N\N=C(/C)c2ccccc2)NC1=O (stereo not given),inactive: 130%
3,Cc1ccc(NC(=O)Cn2c(=O)n(CC(=O)NCCc3ccccc3)c(=O)c3ccccc32)cc1C,inactive: 76%
4,COc1ccc(-c2noc(CCC(=O)Nc3cccc(C)c3C)n2)cc1OC,inactive: 88%
5,Cc1ccc(S(=O)(=O)c2cn(CC(=O)Nc3ccc(F)cc3)c3cc4c(cc3c2=O)OCO4)cc1,inactive: 57%
6,CCc1cccc(NC(=O)Nc2cn(C)c(=O)c3ccccc23)c1,inactive: 78%
7,COc1cccc(NC(=O)C2CCN(S(=O)(=O)c3c(C)noc3C)CC2)c1,inactive: 82%
8,Cc1ccc(C(=O)COC(=O)c2cc(-c3cccs3)nc3ccccc23)cc1,inactive: 76%
9,Cc1c(C(=O)Nc2ccc(F)c(F)c2)oc2ccc(S(=O)(=O)N3CCC4(CC3)OCCO4)cc12,inactive: 58%
10,O=C(Nc1c(-c2ccc(F)cc2)nc2ccccn12)c1cccc(F)c1,inactive: 136%
11,CC(=O)Nc1ccc(NS(=O)(=O)c2ccc(Cl)s2)cc1,inactive: 84%
12,COc1ccccc1CNC(=O)CN(c1ccc(C)cc1)S(=O)(=O)c1c(C)noc1C,inactive: 77%
13,Cc1nn(-c2ccc(F)cc2)c(-n2cccc2)c1C(=O)N1CCN(c2ccccc2F)CC1,inactive: 71%
14,Cc1oc(C(C)(C)C)cc1C(=O)NCCO,inactive: 117%
15,COc1ccc(OC)c(NC(=O)c2cnc(N3CCCC3)nc2C)c1,inactive: 84%
16,CCNC(=S)N1CCC(NC(=O)C23CC4CC(CC(C4)C2)C3)CC1,inactive: 101%
17,Cc1ccc(C2C=C(c3ccc(F)cc3)Nc3nc(CCCO)nn32)cc1 (stereo not given),inactive: 91%
18,Nc1ccc2c(c1)ncn2CCO,inactive: 115%
19,CCCCc1ccc(NS(=O)(=O)c2ccc(N3CCCCS3(=O)=O)cc2)cc1,inactive: 73%
20,CCOc1ccc(C(=O)c2cn(Cc3ccccc3)c3c(F)cc(F)cc3c2=O)cc1,inactive: 95%
21,O=C(O)c1snc2c(=O)[nH]cnc12,inactive: 105%
